In PubChem BioAssay AID504466 (National Center for Advancing Translational Sciences (NCATS), 2011):
Hit rate of the full screen: of about 330,000 compounds, about 4,200 (1.3%) were called active. The inconclusive results got no clear call from the source; some entries with a clear call stand among them for comparison. Calls come from the whole dose curve; as a rule, active = well fitted activation curve with a large enough effect; inconclusive = small, poorly fitted or top-dose-only effect; inactive = no such curve, though single readings can be large or run the other way. Potencies of inconclusive entries are doubtful fits and often do not repeat.

Assay: qHTS screen for small molecules that induce genotoxicity in human embryonic kidney (HEK293T) cells expressing luciferase-tagged ELG1; note: nearly all actives have a fitted effect of over 60% in size; for activity change, positive = activation: % of control where 0% means no effect
Details: HEK293T ELG1-luciferase reporter, luminescence, 16 h; series mostly up to 46 µM; activity change, positive = activation: at the top concentration
Outline: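 After overnight (16 hr) compound treatment at 37 °C, ELG1-luciferase HEK293T cells were lysed with ONE-Glo; luminescence quantified 30 min later at room temperature.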
Potency is the fitted concentration of half-maximal effect; tags give direction and shape of the fitted curve.

SMILES	Potency	activity change, positive = activation
O=C(CC1CCCCC1)NCc1ccc(Cl)cc1	inconclusive: 13 µM [activator, partial curve, poor fit]	
O=C1c2cccnc2C(=O)N1Cc1ccc(S(=O)(=O)NCc2ccco2)s1		inactive: 1.37%
Cc1sc(NC(=O)c2ccc(F)cc2)c(CN2CCCCCC2)c1C	inconclusive: 32.6 µM [activator, partial curve, poor fit]	
O=C(N/N=C(\c1ccccc1)c1ccccn1)c1ccccc1Cl	inconclusive: 23.1 µM [activator, single point]	
CC(=O)NCCc1nc2cc(NC(=O)c3ccc(Cl)cc3)ccc2n1C	active: 5.8 µM	
O=C(Nc1cccc(C(=O)O)c1)/C(=C\c1ccccc1)NC(=O)c1cccc2ccccc12		inactive: 0.391%
CC(=O)c1sc(NC(=O)c2ccc(Br)o2)nc1C	active: 16.4 µM	
O=C(Nc1nnc(Cc2ccccc2)s1)c1ccco1	active: 16.4 µM	
Nc1ccc(C(=O)Nc2ccccc2N)cc1	active: 14.6 µM	
Cc1ccc(-n2nnnc2SCc2ccccn2)cc1C	inconclusive: 17.8 µM [activator, single point]	
CC(=O)c1cnc(-c2cccc(Cl)c2)s1	inconclusive: 18.3 µM [activator, single point]	
O=C(c1cc(-c2ccc(Cl)c(Cl)c2)on1)N1CCOCC1	inconclusive: 9.2 µM [activator, partial curve]	
Fc1ccc(-n2nnc(-c3cnc4ccccc4c3)n2)cc1	active: 0.231 µM	
COC(=O)c1cc(Cl)c(NC(=O)c2ccc(F)cc2)cc1OC		inactive: 7.81%
O=C(Nc1ccc2c(c1)OCO2)Nc1ccccn1	inconclusive: 3.26 µM [activator, partial curve, poor fit]	
Cc1cc(C(=O)Cn2cnc3ccccc3c2=O)c(C)n1C1CC1	active: 5.17 µM	
O=C(/C=C/Nc1ccc([N+](=O)[O-])cc1)c1ccc(Br)cc1	inconclusive: 18.4 µM [activator, partial curve, poor fit]	
COC(=O)c1ccc2nc(NC(=O)C(C)C)sc2c1	inconclusive: 3.26 µM [activator, partial curve]	
Cc1cccc2nc(CSc3nc4ccccc4[nH]3)cn12		inactive: 4.86%
CCOC(=O)C1CCCN(C2=NC(=O)/C(=C/c3ccc(O)c(OC)c3)S2)C1 (stereo not drawn)	inconclusive: 23.1 µM [activator, partial curve, poor fit]	
Cc1cccc(NC(=O)Nc2cccc(Oc3c(F)c(F)c(F)c(F)c3F)c2)c1		inactive: 0.228%
COCCCn1c(SCC(=O)n2c(C)c(C)c3ccccc32)nnc1-c1ccoc1C	active: 18.4 µM	
CCSc1nc2ccccc2c(=O)n1CCc1ccc(OC)c(OC)c1		inactive: -15.7%
CC(=O)N1CCC2(CC1)CC(=O)c1cc(OCC(=O)N3CCOCC3)ccc1O2		inactive: -10.8%
Cc1ccc(NC(CC(=O)c2ccccc2)C(=O)O)cc1Cl (stereo not drawn)	inconclusive: 8.2 µM [activator, partial curve]	

SMILES	Potency	activity change, positive = activation
CC1CCCN(C(=O)CSc2nc3ccccc3o2)C1 (stereo not drawn)	inconclusive: 13 µM [activator, partial curve, poor fit]	
COc1ccccc1C(=O)Nc1nc2cc3c(cc2s1)OCO3	inconclusive: 4.61 µM [activator, partial curve]	
CCCCNc1cnn(-c2ccccc2)c(=O)c1Cl	inconclusive: 20.6 µM [activator, partial curve, poor fit]	
CC1CCCC(C)N1CCNC(=O)CCc1nnc2n(Cc3ccccc3)c(=O)c3ccccc3n12 (stereo not drawn)		inactive: -0.34%
Cc1c2ccccc2nc2c(F)c(NCCO)c(F)c(F)c12	inconclusive: 20.6 µM [activator, partial curve, poor fit]	
O=C(NC1CC1)c1cc2c(s1)-c1ccccc1OC2	inconclusive: 20.6 µM [activator, single point]	
Cc1cccc(NC(=O)CCC2CCN(C(=O)C3CC=CCC3)CC2)c1 (stereo not drawn)		inactive: -6.64%
CCN(CC)S(=O)(=O)c1cccc(C(=O)N[C@H](C(=O)Nc2nc3ccc(F)cc3s2)C(C)C)c1		inactive: 8.58%
O=C(CSc1nc2ccccc2[nH]1)N1CCCCC1	active: 8.2 µM	
O=C(NC1CCCCCC1)c1ccc(CN2CCOCC2)cc1	inconclusive: 14.6 µM [activator, partial curve]	
O=S(=O)(Nc1ccc(N2CCCCC2)cc1)c1ccc(F)c(F)c1		inactive: -2.62%
CCCOC1CCCN(C(=O)c2cc(COc3c(F)cccc3F)on2)C1 (stereo not drawn)	inconclusive: 10.3 µM [activator, partial curve]	
COc1cccc(-c2cn3nc(C)c(C)nc3n2)c1	inconclusive: 5.8 µM [activator, partial curve]	
CC(C)(C)c1ccc(/C=C/C(=O)Nc2ncccn2)cc1	inconclusive: 10.3 µM [activator, partial curve]	
COc1cccc(-c2cc(C(=O)Nc3cccc(O)c3)no2)c1	inconclusive: 4.61 µM [activator, single point]	
COc1cc(SC)ccc1C(=O)Nc1ccc2c(c1)CCC2	inconclusive: 4.11 µM [activator, full curve]	
Cn1c(N)c(C(=O)Nc2ccc3ccccc3c2)sc1=S	inconclusive: 2.59 µM [activator, full curve, poor fit]	
CCCc1cc(C(=O)Nc2ccccc2SC)no1	inconclusive: 16.4 µM [activator, single point]	
CC(CCc1ccccc1)NC(=O)COC(=O)c1ccc(S(C)(=O)=O)c([N+](=O)[O-])c1 (stereo not drawn)	inconclusive: 35.5 µM [activator, single point]	
COc1cc(OC)cc(-c2nc(-c3ccccc3)no2)c1	inconclusive: 11.6 µM [activator, partial curve, poor fit]	
Cc1ccc(NC2c3ncccc3C(=O)N2c2ccccc2C)cc1C (stereo not drawn)		inactive: 0.649%
Cc1cc(NC(=O)CSc2nc3c(cc2C#N)CCCCC3)no1	inconclusive: 9.2 µM [activator, partial curve]	
Nc1[nH]c(N=NC(=O)c2ccc(F)cc2)c2ccccc12	inconclusive: 20.6 µM [activator, single point]	
NC(=S)N/N=C/c1ccc2ccccc2c1	inconclusive: 20.6 µM [activator, partial curve, poor fit]	
Oc1ccc(/C=N/NC(=S)N/N=C/c2ccc(O)cc2)cc1	inconclusive: 13 µM [activator, partial curve]	

SMILES	Potency	activity change, positive = activation
CCOc1ccc(-c2ccc(SCC(=O)NC3CCCCC3)nn2)cc1	inconclusive: 5.17 µM [activator, full curve]	
Nc1c(C(=O)c2ccc(Cl)cc2)sc2c1c(=O)[nH]c(=O)n2-c1ccccc1		inactive: 14.1%
Cc1oncc1C(=O)Nc1ccc2ccccc2c1	inconclusive: 16.4 µM [activator, single point]	
O=C(Cc1cccs1)NCc1cccc(C(F)(F)F)c1	inconclusive: 11.6 µM [activator, partial curve]	
Cc1nc(NCCc2ccccc2)sc1C(=O)N(C)C	inconclusive: 16.4 µM [activator, partial curve, poor fit]	
O=C(c1cc(-c2cccc(O)c2)on1)N1CCCC1	active: 7.3 µM	
CCOC(=O)c1csc(-c2sccc2Br)n1	active: 5.17 µM	
O=C(CN1CCOCC1)Nc1ncc(Cc2cccc3ccccc23)s1	inconclusive: 20.6 µM [activator, partial curve, poor fit]	
Cc1ccc(-n2nnnc2SCC(=O)N2CC(=O)Nc3ccccc32)cc1		inactive: -0.0958%
Nn1c(SCC(=O)N2CCN(S(=O)(=O)c3ccc(Cl)cc3)CC2)nnc1-c1cccs1		inactive: -0.167%
CCOC(=O)C1CCCN(C(=O)c2csc(-c3ccc4c(c3)CCO4)n2)C1 (stereo not drawn)		inactive: -6.18%
COc1ccc(-c2nc3ncccn3c2Br)cc1	inconclusive: 20.6 µM [activator, single point]	
CCCCn1cnc2sc(-c3ccccc3)cc2c1=O	inconclusive: 2.91 µM [activator, full curve]	
Cc1ccc2c(ccn3cc4c(c(=O)n(C)c(=O)n4C)c23)c1	inconclusive: 4.11 µM [activator, full curve, poor fit]	
COc1cc(C)ccc1OCCOc1ccccc1Cl	inconclusive: 20.6 µM [activator, single point]	
CC(C)CCN(C(=O)CCCSc1nc2ccccc2[nH]1)c1c(N)n(Cc2ccccc2)c(=O)[nH]c1=O		inactive: 3.04%
COc1ccc(CNC(=O)c2ccc3oc(C(C)C)nc3c2)cc1	inconclusive: 23.1 µM [activator, partial curve, poor fit]	
N#Cc1ccsc1NC(=O)CSc1nncs1	inconclusive: 16.4 µM [activator, partial curve]	
Cc1ccc2nc(CCc3ccc(N)cc3)[nH]c2c1	inconclusive: 10.3 µM [activator, partial curve, poor fit]	
COc1ccc(C(CNC(=O)CSc2ccc(Br)cc2)N2CCOCC2)cc1 (stereo not drawn)	inconclusive: 29.1 µM [activator, single point]	
Cc1cc(C)nc(SCc2ccc(C(=O)N/N=C/c3cccc(O)c3O)cc2)n1	inconclusive: 16.4 µM [activator, partial curve, poor fit]	
Cc1ccc(NC(=S)c2ccccc2)cc1	inconclusive: 20.6 µM [activator, single point]	
COc1ccc(NC(=S)NC23CC4CC(CC(C4)C2)C3)cc1OC	inconclusive: 23.1 µM [activator, partial curve, poor fit]	
